About 800 (1.6%) of roughly 50,000 compounds showed an effect of 50% or more. Some of the results follow.

For the assay, the target named is Bcl-2-like protein 10 (Homo sapiens) (UniProt Q9HD36). Description: TR3 peptide-Bcl-B binding displacers, biochemical primary FP assay, phenotype converters (AID 1240).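 Also: 0% = Bcl-B with tracer peptide and DMSO and 100% = tracer peptide lacking Bcl-B.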 Particulars: GST-Bcl-B / FITC-TR3 peptide fluorescence polarization; stronger effect = higher value; compound at 3.75 mg/L. In general terms: In fluorescence polarisation assays a small probe gives low polarisation when free and higher when bound to something large.
Chain of UniProt Q9HD36 (Q9HD36 whole entry, looked up): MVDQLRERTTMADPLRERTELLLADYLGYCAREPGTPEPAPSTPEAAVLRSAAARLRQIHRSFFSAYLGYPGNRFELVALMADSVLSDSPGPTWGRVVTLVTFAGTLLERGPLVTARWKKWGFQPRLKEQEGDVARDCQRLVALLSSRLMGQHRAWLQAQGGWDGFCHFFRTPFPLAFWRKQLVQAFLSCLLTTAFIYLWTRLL
Consider `CCOc1ccc(N2C(=O)CC(N3CCC(Cc4ccccc4)CC3)C2=O)cc1` (stereo unspecified), for which the displacement came out at 5%.
With `O=C1NN(c2ccccc2)C(=O)/C1=C/c1cc([N+](=O)[O-])c(Cl)cc1Cl` the figure was 9.5%.
Turning to `CCCc1ccc(-c2csc(N)n2)cc1`, the displacement is 2.2%.
With `CCN(c1nc(C)cc(OC)n1)S(=O)(=O)c1ccccc1` the figure was -7.2%; with `COc1ccc(CC(=O)Nc2ccc(Br)cc2)cc1OC`, 11.6%; with `CCOC(=O)C1CCN(C2CC(=O)N(c3cccc(Cl)c3)C2=O)CC1` (stereo unspecified), 6.6%.
For `COc1ccc(C2=NN(c3nc(-c4ccc(OC)c(F)c4)cs3)C(c3ccc(OC)cc3)C2)cc1` (stereo unspecified), the displacement was determined as 4.1%.
For the compound `C=COCCNC(=O)C(=O)Nc1ccc(C)cc1C`, the displacement was -7.6%.
On to `CCc1cc2c(N3CCCCC3)ncnc2s1`, for which the displacement was -2.1%.
With `O=C1C(=Cc2ccccc2)C(=O)c2ccccc21` the figure was 17.6%; with `Cc1ccc(/C=C(\C#N)c2nc(-c3ccc([N+](=O)[O-])cc3)cs2)o1`, 3.5%.
To `CCOc1cc(C(=S)N2CCOCC2)cc(Br)c1OC(=O)c1ccc([N+](=O)[O-])cc1` belongs -0.9%; to `Cc1cc(C)cc(NC(=O)c2ccc(C)c([N+](=O)[O-])c2)c1`, 14.8%.
For `COc1cc(/C=N/n2nnnc2N)cc(OC)c1OC`, the displacement worked out at 9.1%.
Take `Cc1ccccc1OCC(=O)O/N=C(\N)c1cccnc1`: the displacement amounted to 2.5%.
To `Nn1c(N2CCOCC2)nc2ccccc21` belongs 3.1%; to `CC(=O)Oc1cc(-c2nc3ccccc3c(=O)o2)cc(-c2nc3ccccc3c(=O)o2)c1`, 9.5%.
With `Cc1cc([N+](=O)[O-])ccc1N=Cc1cccc(O)c1O`, the displacement was determined as 3.7%.
With `O=C1C=C(Nc2ccc(Cl)cc2)CN1` the figure was 11.6%; with `COc1cc(N=Cc2c(O)n(C)c(=O)n(C)c2=O)cc(OC)c1OC`, -3.2%.
On to `CN(C)CCSc1nc(O)c(-c2ccccc2)c(=O)[nH]1`, for which the displacement is -4.8%.
To `CC1C(=O)C(C)C(c2ccc(Cl)cc2)NC1c1ccc(Cl)cc1` (stereo unspecified) belongs -8.6%; to `COc1ccc(CCN2C(=O)/C(=C\c3ccc(C(C)C)cc3)SC2=S)cc1OC`, -0.4%.
Turning to `CCCCCN(CCCCC)C(=O)c1ccccc1C(=O)Nc1ccccc1`, the displacement is 15.4%.
To `Cc1c(NC(=O)COc2ccccc2[N+](=O)[O-])cccc1-c1nc2ncccc2o1` belongs -2.9%.
With `O=C(COc1ccccc1[N+](=O)[O-])Nc1ccc2oc(-c3ccc(Cl)cc3)nc2c1` the figure was 5.7%; with `O=C1NC(=S)S/C1=C/c1ccc(OCc2ccc(Cl)cc2)cc1`, 34.3%; with `N/C(=N\c1nc(C(F)(F)F)cc(=O)[nH]1)Nc1cccc2ccccc12`, -0.2%.
Take `CCOC(=O)CC(=O)NC(C)(C)Cc1ccc(O)cc1`: the displacement was -2.1%.
Turning to `Cn1cc(/C=C2/SC(=Nc3ccccc3)NC2=O)c2ccccc21`, the displacement was -2.7%.
Regarding `O=c1cc(-c2cc(O)c3c(O)c4ccccc4c(O)c3c2O)c(=O)c2c(=O)c3ccccc3c(=O)c1=2`, the displacement came to 40.9%.
As for `C/C(=N/N1CCN(Cc2ccccc2)CC1)c1ccc(Br)cc1`, the displacement is -14.1%.
To `CCC(C)c1ccc(OCCOc2ccc(C=C3C(=O)NC(=S)NC3=O)cc2)cc1` (stereo unspecified) belongs 7.7%.
To `CC12CC3(C)CC(C)(C1)CC(C(N)=O)(C2)C3` belongs 11.6%.
With `O=C(c1ccccc1)c1cc2c(cc1Br)OCCO2` the figure was -2.3%.
As to `O=C(NCCC(c1ccccc1)c1ccccc1)c1ccccc1[N+](=O)[O-]`, the displacement came to 5.4%.
To `COc1cc(/C=N/N2C(=O)C3C4C=CC(CC4)C3C2=O)cc(I)c1OC` (stereo unspecified) belongs 18.1%; to `CC1CCCN(C(=S)SCC(=O)c2cc(Br)cc(Br)c2O)C1` (stereo unspecified), 8.2%.
For `COC(=O)c1c(-c2ccc(F)cc2)csc1NC(=O)c1ccc(OC(C)C)cc1`, the displacement was 10.6%.
With `O=C(Nc1ccccc1C(=O)O)c1cccc(N2C(=O)c3ccccc3C2=O)c1`, the displacement is -10.3%.
Turning to `COc1ccc(CN2CCN(Cc3cc(OC)ccc3O)CC2)cc1`, the displacement turned out to be 0.8%.
Take `Cc1ccc(S(=O)(=O)NC(Cc2ccccc2)C(=O)Nc2ccc(F)cc2)cc1` (stereo unspecified): the displacement was -16.4%.
With `C/C(=C\C(=O)OCCOCCOC(=O)/C=C(\C)NC1CC(C)(C)NC(C)(C)C1)NC1CC(C)(C)NC(C)(C)C1` the figure was 2.8%; with `CCNC(=O)CN(c1ccc(OC)cc1)S(=O)(=O)c1ccc(C)cc1`, 5%.
Regarding `CC(=O)NC1=NC(=O)/C(=C\c2ccc(C)o2)S1`, the displacement worked out at 96%.
With `O=C1C(=O)N(CC2CCCO2)C(c2ccccc2F)/C1=C(/O)c1ccccc1` (stereo unspecified) the figure was -6.1%; with `O=C(Cc1ccc(F)cc1F)Nc1ccc(Br)cc1`, 10%; with `CN(C)c1ccc(/C=C(\NC(=O)c2ccc([N+](=O)[O-])cc2)C(=O)NN)cc1`, -54.2%.
With `CC(C)(C)c1ccc(S(=O)(=O)N=C2C=CC(=O)C=C2)cc1`, the displacement was 7.4%.
With `CC(/C=C1\SC(=S)N(C(C(=O)O)c2ccccc2)C1=O)=C\c1ccccc1` (stereo unspecified) the figure was 7%; with `COc1cccc(NC(=O)c2ccc(CN3CCN(c4ccccc4)CC3)cc2)c1`, -3.2%; with `COc1ccc2nc(NS(=O)(=O)c3ccc(Cl)cc3)c(Nc3ccc4[nH]c(=O)[nH]c4c3)nc2c1`, -2.9%.
For `CCOC(=O)CSc1nc2sc(C)c(C)c2c(=O)[nH]1`, the displacement is -1.5%.
For the compound `O=c1/c(=C\c2ccc(OCc3ccccc3)c(Br)c2)sc2nc3ccccc3n12`, the displacement is -19.7%.
Consider `O=C1C(=O)N(Cc2ccccc2)C(c2cccc([N+](=O)[O-])c2)/C1=C(/O)c1ccccc1` (stereo unspecified), for which the displacement was -2.6%.
With `O=C1CC(N2CCOCC2)C(=O)N1CCc1ccccc1` (stereo unspecified) the figure was -1.1%; with `COc1ccc(C(=O)N/C(=C\c2cccc([N+](=O)[O-])c2)C(=O)NCC2CCCO2)cc1` (stereo unspecified), 10.3%.
To `O=C(CSc1nc2sc3c(c2c(=O)[nH]1)CCCC3)NCc1ccco1` belongs 59.8%; to `CC(=O)Oc1ccc(-c2cccc(C(=O)Oc3ccccc3)c2)cc1`, 9.8%.
With `CCOC(=O)c1c(N)sc2c1CCCCCC2` the figure was 1.7%; with `CC(=O)C1=C(O)C(=O)N(c2nc3ccccc3s2)C1c1ccccc1F` (stereo unspecified), -8.5%; with `COc1ccc(Br)cc1C(=O)Nc1ccc(OC(F)(F)F)cc1`, 1.4%.
Consider `CC(C)C(=O)Nc1ccc(Oc2ccc(C(=O)O)c(C(=O)O)c2)cc1`, for which the displacement turned out to be 12.4%.
With `O=C(COc1cccc2ccccc12)Nc1cccnc1`, the displacement is -3.1%.
`COc1ccc(CCNc2cc(N3CCN(C(=O)c4ccccc4F)CC3)ccc2[N+](=O)[O-])cc1OC`: the displacement worked out at 13.1%.
With `CCOC(=O)/C(C#N)=C1/C=Cc2ccccc2N1CC` the figure was 17.9%; with `CCc1nnc(NC(=O)C(CC)c2ccccc2)s1` (stereo unspecified), 24.6%.
To `COC(=O)C1=C(C)N(C)C(C)=C(C(=O)OC)C1c1ccncc1` belongs -14.8%; to `COC(=O)C1=NN(C(=O)c2cccc(Br)c2)C(O)(c2ccccc2)C1` (stereo unspecified), -11.3%.
As for `CCO/C=N/C1=C(C#N)C(c2ccccc2)C2=C(CC(C)(C)CC2=O)O1` (stereo unspecified), the displacement was 4.5%.
Consider `CC(C)(C)c1ccc(OCC(=O)N2CCN(c3ccccn3)CC2)cc1`, for which the displacement was -10.9%.
With `O=C(COc1ccc2ccccc2c1)NCc1ccccc1Cl` the figure was -6.9%; with `CC(=O)n1cc(/C=C2\N=C(c3ccc(C(C)(C)C)cc3)OC2=O)c2ccccc21`, 72.1%.
Regarding `O=C(COc1ccc(Cl)cc1)NCCc1cccc(Cl)c1`, the displacement is 0.4%.
To `COC(=O)C1=C(C)N(c2ccc(Br)cc2)/C(=C\c2ccc(OCC(=O)Nc3ccccc3OC)cc2)C1=O` belongs 20.3%; to `COc1ccc(CN2CCN(C(=O)c3ccc([N+](=O)[O-])cc3)CC2)cc1OCc1ccccc1`, -6.8%; to `O=S(=O)(/N=C/c1ccccc1)c1cccs1`, 10.5%.
To `CCOc1ccc(C2/C(=C(\O)c3ccc(Cl)cc3)C(=O)C(=O)N2CCCn2ccnc2)cc1` (stereo unspecified) belongs 5.1%; to `COc1ccc(S(=O)(=O)N/N=C/c2c(C)[nH]c3ccccc23)cc1`, 15.9%; to `Cc1c(N(CC(=O)O)S(=O)(=O)c2ccccc2)c(=O)n(-c2ccccc2)n1C`, 12.9%.
In the case of `O=C(O)CCN1C(=O)/C(=C/c2ccc(Cl)cc2Cl)SC1=S`, the displacement came out at 11.1%.
For `CCC(C)C(C(=O)Nc1ccc(I)cc1)N1C(=O)c2ccccc2C1=O` (stereo unspecified), the displacement turned out to be 11.2%.
In the case of `C=COCCNC(=O)C(=O)Nc1ccc(OC)cc1`, the displacement was determined as 5.6%.
As to `C=CCN1C(=O)/C(=C/c2ccccc2Cl)C(=O)NC1=S`, the displacement was -3.5%.
`O=C(O)C1CCCCC1C(=O)Nc1nccs1` (stereo unspecified): the displacement was -2.5%.
To `Cc1ccc(OCCCCCCN2CCCC2)cc1` belongs -5.3%; to `COc1ccc(/C=C2\C(=O)NC(=S)N(c3ccc(Br)cc3C)C2=O)cc1[N+](=O)[O-]`, 16.4%.
With `O=C1CN(C(=O)c2cc([N+](=O)[O-])c(N3CCCCC3)c([N+](=O)[O-])c2N2CCCCC2)c2ccccc2N1` the figure was 1.8%; with `O=c1n(Cc2ccccc2Cl)c2cc(N3CCOCC3)c([N+](=O)[O-])cc2n1Cc1ccccc1Cl`, -9.7%; with `COC(=O)c1ccc(N2C(=O)CC(NCCc3ccc(OC)cc3)C2=O)cc1` (stereo unspecified), 8.7%.
With `CCn1c2c(c3cc(C(=O)O)ccc31)CCCC2=O` the figure was 9%; with `COC(=O)CSc1nc2c(c(C3CC=CCC3)c1C#N)CCC2` (stereo unspecified), 1%; with `O=C1/C(=C\c2cccc(C(F)(F)F)c2)SC(=S)N1c1ccccc1`, 18%.
For the compound `O=S1(=O)N=C(Oc2ccc(Cl)cc2)c2ccccc21`, the displacement was -5.3%.
Regarding `C/C(=N\Nc1cc(-n2cc(C)cn2)ncn1)c1ccc(Cl)c(Cl)c1`, the displacement is -9.7%.
With `O=C(/C=C\c1cccs1)NC(=S)Nc1ccc([N+](=O)[O-])cc1O` the figure was -5.4%; with `CC1(C)Nc2ccccc2-c2c1ssc2=NC1CCCCC1`, -10.4%; with `O=C1S/C(=C\c2cccs2)C(=O)N1c1cccc(Cl)c1`, 23.6%.
With `O=C1C(=O)N(CCO)C(c2ccc(Br)cc2)/C1=C(\O)c1ccc(Cl)cc1` (stereo unspecified) the figure was 13%; with `CCOc1cc(OCC)cc(C(=O)Nc2ccc(N3CCOCC3)c(Cl)c2)c1`, 7.1%; with `Cc1cc(Cl)ccc1OC(C)C(=O)NCCC1=CCCCC1` (stereo unspecified), 7%.
Turning to `C/C(=C\C(=O)c1ccc(Cl)cc1)Nc1ccc(Br)c(Cl)c1`, the displacement is -6.6%.
Consider `CC(=O)Nc1ccc(NC(=O)c2ccc(C(F)(F)F)cc2)cc1`, for which the displacement was determined as 12.7%.
With `COc1cc(/C=N/NC(=O)CC2(C)OCCO2)cc(Br)c1OCc1cccc2ccccc12`, the displacement was -2.1%.
Turning to `O=C(Nc1ccc(-c2nc3ccccc3[nH]2)cc1)c1cccc(Br)c1`, the displacement was -2.5%.
With `Cc1cc2nc(-c3ccc(N)cc3)oc2cc1C` the figure was -1.5%.
